In all, about 39,000 compounds went through this assay and about 220 (0.56%) showed activity. This is one part of the list.
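Note: static incubation at 37 °C against the wild-type strain, values averaged over two biological replicates.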

The test system of the experiment is Escherichia coli K-12 BW25113. Nature of the experiment: relative growth (OD600 normalised to plate interquartile mean) (fraction); higher = less growth inhibition, active = 0.2 or less. Particulars: 50 µM; LB; incubation time: overnight (16-24 h).
Consider `CS(=O)(=O)N1C[C@@H](O)COC[C@H]2O[C@@H](CC(=O)NCc3ccccc3)CC[C@@H]21`, for which the relative growth was inactive: 0.993.
Under `COCC(=O)N(C)C[C@H]1Oc2cc(C#Cc3ccccc3)ccc2S(=O)(=O)N([C@H](C)CO)C[C@H]1C` stands inactive: 0.902; under `COc1ccc(S(=O)(=O)N(C)C[C@@H]2Oc3ccc(NS(=O)(=O)c4cn(C)cn4)cc3C(=O)N([C@@H](C)CO)C[C@@H]2C)cc1`, inactive: 1.01; under `O=C(CCCCCCC(=O)Nc1ccc([C@H]2O[C@@H](COc3ccccc3)C[C@H](c3ccccc3)O2)cc1)NO`, inactive: 0.988.
Then `C[C@@H]1CCCCO[C@H](CN(C)Cc2ccccc2)[C@H](C)CN([C@H](C)CO)C(=O)c2cc(NC(=O)c3ccncc3)ccc2O1`, with inactive: 0.977; and `C[C@@H]1CCCCO[C@@H](CN(C)Cc2ccc(C(=O)O)cc2)[C@@H](C)CN([C@H](C)CO)C(=O)c2cc(NS(=O)(=O)c3ccc(Cl)cc3)ccc2O1`, with inactive: 1.01; and `C[C@@H]1CCCCO[C@@H](CN(C)C(=O)C2CCCCC2)[C@H](C)CN([C@@H](C)CO)C(=O)c2cc(NC(=O)Nc3ccc(C(F)(F)F)cc3)ccc2O1`, with inactive: 1.08.
Then `CNC(=O)C[C@@H]1CC[C@H]2[C@@H](COC[C@@H](O)CN2C(=O)Nc2cccc(OC)c2)O1`, with inactive: 0.961.
Turning to `C[C@H](CO)N1C[C@H](C)[C@H](CN(C)C(=O)Nc2ccc(F)cc2)OCCCC[C@H](C)Oc2ccc(NC(=O)Nc3ccc4c(c3)OCO4)cc2C1=O`, the relative growth is inactive: 1.03.
Under `C[C@@H]1CCCCO[C@@H](CN(C)Cc2ccc(Cl)c(Cl)c2)[C@@H](C)CN([C@H](C)CO)C(=O)c2cc(NC(=O)NC3CCCCC3)ccc2O1` stands inactive: 1; under `COc1ccc(S(=O)(=O)N(C)C[C@H]2Oc3c(NC(=O)C4CC4)cccc3C(=O)N([C@H](C)CO)C[C@H]2C)cc1`, inactive: 0.982; under `C[C@H](CO)N1C[C@H](C)[C@@H](CN(C)S(=O)(=O)c2cccs2)Oc2ccc(NC(=O)c3ccncc3)cc2CC1=O`, inactive: 1.02.
Then `C[C@H]1CN([C@@H](C)CO)C(=O)Cc2cc(NC(=O)Nc3cccc4ccccc34)ccc2O[C@H]1CN(C)S(=O)(=O)c1ccc(Cl)cc1`, with inactive: 1.04.
For the compound `CC(C(=O)O)c1cccc(Oc2ccccc2)c1` (stereo not drawn), the relative growth was inactive: 1.03.
Under `C[C@H]1CN([C@@H](C)CO)C(=O)c2cc(C#Cc3ccccc3F)cnc2O[C@H]1CN(C)S(=O)(=O)c1ccccc1` stands inactive: 1.02; under `C[C@@H]1CN([C@H](C)CO)C(=O)Cc2cc(NC(=O)Nc3ccccc3)ccc2O[C@H]1CN(C)Cc1ccc(Cl)c(Cl)c1`, inactive: 1.02; under `CCCC1CCC(c2ccc(OC(=O)c3ccco3)cc2)CC1` (stereo not drawn), inactive: 1.03.
Then `O=C(C[C@@H]1C=C[C@H](NS(=O)(=O)c2ccc(F)cc2)[C@@H](CO)O1)NCc1ccc(Cl)c(Cl)c1`, with inactive: 0.985; and `C[C@@H]1CN([C@H](C)CO)S(=O)(=O)c2ccc(C#Cc3ccccn3)cc2O[C@H]1CN(C)Cc1ccccc1`, with inactive: 1.04; and `COc1ccc(C#Cc2cnc3c(c2)C(=O)N([C@@H](C)CO)C[C@@H](C)[C@H](CN(C)CC2CCOCC2)O3)cc1`, with inactive: 1.01.
Under `C[C@@H]1CCCCO[C@@H](CN(C)Cc2ccc(C(=O)Nc3ccccc3N)cc2)[C@@H](C)CN([C@H](C)CO)C(=O)c2cc(NS(=O)(=O)c3ccc(F)cc3)ccc2O1` stands inactive: 1; under `CO[C@H]1CN(C)C(=O)c2cc(NS(=O)(=O)c3cn(C)cn3)ccc2OC[C@@H](C)N(CC2CC2)C[C@@H]1C`, inactive: 0.961; under `Cc1cccc(CN(C)C[C@@H]2Oc3ncc(-c4cccc(C(F)(F)F)c4)cc3C(=O)N([C@H](C)CO)C[C@@H]2C)c1`, inactive: 1.
Consider `COc1ccc(S(=O)(=O)Nc2ccc3c(c2)C(=O)N([C@H](C)CO)C[C@H](C)[C@H](CN(C)C(=O)NC2CCCCC2)OCCCC[C@@H](C)O3)cc1`, for which the relative growth is inactive: 0.984.
Take `COC(=O)C[C@H]1CC[C@H]2[C@@H](COC[C@H](O)CN2S(=O)(=O)c2ccccc2C)O1`: the relative growth was inactive: 0.958.
In the case of `O=[Si](O)O`, the relative growth is inactive: 0.994.
Then `C[C@@H]1CCCCO[C@@H](CN(C)S(=O)(=O)c2ccc(F)cc2)[C@H](C)CN([C@@H](C)CO)C(=O)c2cc(NC(=O)Nc3cccc4ccccc34)ccc2O1`, with inactive: 1.04.
On to `COc1ccc(NC(=O)Nc2ccc3c(c2)C(=O)N([C@@H](C)CO)C[C@H](C)[C@H](CN(C)C(=O)c2ccccc2)OCCCC[C@H](C)O3)cc1`, for which the relative growth is inactive: 0.993.
Then `C[C@@H]1CN([C@H](C)CO)C(=O)Cc2cc(NC(=O)Nc3cccc4ccccc34)ccc2O[C@H]1CN(C)Cc1ccncc1`, with inactive: 0.984; and `Cc1sc(/N=C/c2ccc(Cl)c(Cl)c2)c(C#N)c1C`, with inactive: 0.992.
Under `COc1ccc(NC(=O)Nc2cccc3c2O[C@H](CN(C)Cc2ccc(C(=O)Nc4ccccc4N)cc2)[C@H](C)CN([C@H](C)CO)C3=O)cc1` stands inactive: 0.97.
Under `Cc1noc(C)c1NC(=O)N(C)C[C@@H]1OCCCC[C@@H](C)Oc2ccc(NS(=O)(=O)c3ccc(F)cc3)cc2C(=O)N([C@H](C)CO)C[C@H]1C` stands inactive: 0.981.
`CCCC(=O)Nc1ccc2c(c1)OC[C@@H](C)N(C(=O)CN1CCOCC1)C[C@@H](C)[C@H](OC)CN(C)C2=O`: the relative growth was inactive: 0.914.
Turning to `C[C@@H]1CN([C@H](C)CO)C(=O)CCCn2cc(nn2)CO[C@H]1CN(C)C(=O)CCCN(C)C`, the relative growth is inactive: 1.01.
Under `C[C@H](CO)N1C[C@H](C)[C@@H](CN(C)Cc2cccc3c2OCCCO3)OCc2ccccc2-c2c(n(C)c3ccccc23)C1=O` stands inactive: 0.972; under `C[C@@H]1CCCCO[C@@H](CN(C)S(=O)(=O)c2ccc(Cl)cc2)[C@H](C)CN([C@H](C)CO)C(=O)c2cc(NC(=O)Nc3ccccc3)ccc2O1`, inactive: 1.06.
Then `C[C@@H]1CN([C@H](C)CO)C(=O)Cc2cc(NC(=O)c3ccncc3)ccc2O[C@@H]1CN(C)S(=O)(=O)c1cccs1`, with inactive: 0.966; and `C[C@H](CO)N1C[C@H](C)[C@@H](CN(C)Cc2ccc(C(F)(F)F)cc2)Oc2ccc(NC(=O)Nc3ccccc3)cc2CC1=O`, with inactive: 1.02.
